Test results reported in PubChem BioAssay AID1508623 (National Center for Advancing Translational Sciences (NCATS), 2021).
Screen size: about 48,000 compounds; about 450 (0.94%) were called active. Roughly 19% stayed inconclusive and do not appear here. Calls follow the shape of the dose curve; as a rule, active = well fitted inhibition curve with a large enough effect; inconclusive = small, poorly fitted or top-dose-only effect; inactive = no such curve, though single readings can be large or run the other way. This is one part of the list.

Experiment: Primary qHTS for Identification of Small Molecule Inhibitors of Huntingtin Promoter Activity; also: nearly all actives have a fitted effect of over 50% in size
Details: HEK293 HTT promoter firefly luciferase reporter (activity 0% = vehicle and -100% = no light), 24 h; series mostly up to 57.5 µM; activity change, negative = inhibition: at the top concentration
In short: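 HEK293 cells carrying firefly luciferase reporters were seeded at 2,500 per well in Opti-MEM and cultured for 24 h. They were then treated with compounds at up to 57.5 uM final for 24 h at 37 degrees C before Dual-Glo luminescence readout.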

Activity change, negative = inhibition, inactive:
CCCNC(=O)N1CCN(S(=O)(=O)c2ccc3c(ccn3C)c2)CC1 -42.6%
COc1cc2c(c(OC)c1)C(c1cc(OC)c(OC)c(OC)c1)CC(=O)N2 (configuration not stated) -3.35%
CC(CNC(=O)CCCn1c(=O)c2cccn2c2cccnc21)c1ccccc1 (configuration not stated) -8.81%
COC(=O)c1ccc(O)cc1 19%
Cc1ccccc1Nc1c(-c2ccncc2)nc2ccc(Cl)cn12 -5.58%
COc1ccc(CCNC(=O)c2ccc(CNS(=O)(=O)c3ccccc3)cc2)cc1OC -19.7%
COc1cc(NC(=O)c2ccc(NC(=O)N3CCSc4ncccc43)cc2)cc(OC)c1 -10.8%
CC(C)(C)OC(=O)N1CCC(c2c(C(=O)N3CCN(C(=O)c4ccco4)CC3)cnn2-c2ccccc2)CC1 -8.39%
Cc1cccc(CCNC(=O)C2CCCN(S(=O)(=O)c3ccc4c(c3)oc(=O)n4C)C2)c1 (configuration not stated) -25.2%
CCOc1cccc2sc(N(CCN(CC)CC)C(=O)c3ccco3)nc12 3.31%
Cc1ccc2nc(Cl)c3cc(C(=O)NC4CCCCCC4)sc3c2c1 -9.08%
CCC1CN(C(=O)Nc2ccc(C(=O)O)cc2)c2cc(Cl)ccc2O1 (configuration not stated) -10.1%
COc1cc(NC(=O)c2c(C)oc3ncnc(N4CCCCC4)c23)cc(OC)c1 -12.9%
Cc1ccc2c(c1)c(=O)c1ccccc1n2CCCC(=O)Nc1c(F)cccc1F -10%
CN(Cc1ccccc1)C(=O)c1cn(C)c2ccc(S(=O)(=O)N(C)C3CCCCC3)cc2c1=O -2.84%
COc1ccc(/C=C(/C#N)c2nc(-c3ccc(Br)cc3)cs2)cc1 -2.6%
Cc1cc(Br)ccc1NC(=O)C1CCN(S(=O)(=O)c2ccc(Br)s2)CC1 0.375%
CCOc1ccc(NC(=O)CCS(=O)(=O)c2ccc(Br)cc2)cc1 -12.2%
Cc1cccc(Cn2c(SCc3ccc(C(=O)NC4CCCCC4)cc3)nc3ccncc32)c1 1.66%
COc1ccc(NC(=O)c2c(C)oc3ccc(O)c(CN4CCN(Cc5ccccc5)CC4)c23)cc1 -8.05%
CCC(=O)N1CCc2cc(S(=O)(=O)CCC(=O)NCc3cccc(OC)c3)ccc21 -8.58%
Cc1ccc2c(c1)-c1c(cnn1CC(=O)Nc1ccccc1C#N)CO2 -17.9%
Cc1ccc(OC(=O)CSc2nnc(CNC(=O)c3ccccc3)o2)cc1 4.6%
Cc1ccc(CCNC(=O)CCSCc2ccccc2Cl)cc1 -3.11%
CCCn1c2ccccc2c2cnn(CC(=O)NC(CCSC)C(=O)OC)c(=O)c21 (configuration not stated) 2.75%
CCOC(=O)c1nnc2c(-c3ccc(Cl)cc3)c(C)nn2c1C -6.4%
Cc1c(C(=O)NCCN(C)C)sc2nc3n(c(=O)c12)CCC3 0.954%
C[C@@H]1C[C@H]2[C@@H]3C[C@H](F)C4=CC(=O)C(Cl)=C[C@]4(C)[C@@]3(F)[C@@H](O)C[C@]2(C)[C@@]1(O)C(=O)CO -5.14%
CCOc1ccc(NC(=O)c2oc3ccccc3c2NC(=O)Cc2cccc(C)c2)cc1 -17.5%
COC(=O)Nc1nc2ccc(S(=O)c3ccccc3)cc2[nH]1 (configuration not stated)
COc1ccc(OC)c(NS(=O)(=O)c2ccc(Br)s2)c1 -28.4%
CCn1cc(C(=O)O)c(=O)c2cc3c(cc21)OCO3 2.08% [at 25.2 µM]
O=C(Nc1ncc(SCCN2CCCC2)s1)[C@]1(c2ccc(S(=O)(=O)C3CC3)cc2)C[C@@H]1C1CCCCC1 -11.6%
CCC(C(=O)OCCN(CC)CC)c1ccccc1 (configuration not stated) 9.58%
CC(C)c1ccc(NC(=O)CCNS(=O)(=O)c2cccc3nsnc23)cc1 -20.4%
CN1CCN(CCC(=O)Nc2ccc(Cl)cc2)CC1 -17.2%
COc1ccc(C(=O)Oc2ccc(C(c3c(C)[nH][nH]c3=O)c3c(C)[nH][nH]c3=O)cc2OC)cc1 0.587%
Cc1cccc(NC(=O)CSc2nc(=O)n(Cc3cccnc3)c3c2CCC3)c1 0%
COc1cc(NC(=O)c2ncn(-c3ccccc3)n2)cc(OC)c1 54.6%
Cn1ncc(C(=O)N2CCN(c3ccccc3F)CC2)c1C1CCN(C(=O)OC(C)(C)C)CC1 -4.06%
CC(=O)c1ccc(NC(=O)CSc2nccn2Cc2ccc3c(c2)OCO3)cc1 -32.3%
Cc1cc(SCC(=O)NCc2ccc(F)cc2)nc(=O)[nH]1 0.945%
CCCCN(CC)CCCNC(=O)c1cn(CC)c2ccc(S(=O)(=O)N3CCOCC3)cc2c1=O -9.21%
O=C(COCc1cc(-c2ccco2)on1)Nc1cccc(Cl)c1Cl -3.03%
CCOc1ccccc1-n1nnc(S(=O)(=O)c2ccc(C)cc2)c1N -29.2%
COc1ccc(C2N3CC4(C)CN2CC(c2ccccc2)(C3)C4=O)cc1 (configuration not stated) -16.2%
CCOc1ccc(NC(=O)CN2CCN(c3ccc(Cl)cc3)CC2)cc1 -13.3%
COc1ccc(OC)c(CCNC(=O)c2cc3c(=O)n(C)c4ccccc4c3n2C)c1 -21.2%
CCOC(=O)c1cccc(NC(=O)C2CCCN(S(=O)(=O)c3cc(Br)cc4c3N(C(=O)CC)CC4)C2)c1 (configuration not stated) -4.85%
COc1ccc(CN(C(=O)Cc2coc3ccc(C)cc23)C2CCS(=O)(=O)C2)cc1 (configuration not stated) -8.08%
CCc1cccc(NC(=O)CCN2C(=O)c3ccccc3Sc3ncccc32)c1 -17.3%
Cc1cc(=O)n2nc(N(C)CC(=O)NCc3ccc(Cl)cc3)sc2n1 -4.1%
O=C(NCC1CCN(Cc2ccc(F)cc2)CC1)c1cc2ccc3cccnc3c2[nH]1 -4.21%
COc1cc(Cl)c(C)cc1NC(=O)c1cc2c(s1)-c1c(C)cccc1OC2 -14.1%
Cc1cc(=O)oc2cc(O[C@@H]3SC[C@@H](O)[C@H](O)[C@H]3O)ccc12 13.7%
CCc1nn(CC(=O)N2CCN(c3cccc(C)c3C)CC2)c(=O)c2cc3sccc3n12 -5.73%
CCC(=O)N1CCc2cc(S(=O)(=O)NC(CC(C)C)C(=O)NCc3ccc(C)cc3)ccc21 (configuration not stated) -13.9%
Cc1cc2[nH]c(=O)c(=O)[nH]c2cc1S(=O)(=O)Nc1cccc(C(F)(F)F)c1 -4.28%
Cc1sc2ncn(CC(=O)N3CCN(c4ccc(F)cc4)CC3)c(=O)c2c1S(=O)(=O)N1CCN(c2ncccn2)CC1 -9.75%
Cc1ccccc1NC(=O)Nc1cccs1 -5.59%
O=C1c2oc3ccccc3c(=O)c2C(c2cccc(Br)c2)N1c1ccccn1 (configuration not stated) -16.5%
CCCCN(C)C(=O)Cn1cnc2sc(C)c(S(=O)(=O)N3CCN(c4ccccc4OC)CC3)c2c1=O -0.423%
